Results as given in PubChem BioAssay AID686970 (National Center for Advancing Translational Sciences (NCATS), 2013).
Out of some 360,000 compounds screened, about 6,000 (1.7%) were called active. The inconclusive results got no clear call from the source; some entries with a clear call stand among them for comparison. Calls follow the shape of the dose curve; as a rule, active = well fitted cell-killing curve with a large enough effect; inconclusive = small, poorly fitted or top-dose-only effect, or effect the other way; inactive = flat fitted curve, though single readings scatter. No potency is given beside an inconclusive call; the fits are too rough.

Test: qHTS for induction of synthetic lethality in tumor cells producing 2HG: qHTS for the HT-1080-NT fibrosarcoma cell line;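 also: NT is the 2HG producing partner of a matched IDH1 knockdown line; nearly all actives have a fitted effect of over 55% in size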;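 as to activity, negative = less viability: 0% = DMSO-treated cells and -100% = media-only wells without cells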
Conditions: HT-1080-NT fibrosarcoma viability, CellTiter-Glo ATP luminescence, 48 h; activity, negative = less viability: at 46.1 µM (top of the series) unless noted
In short: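 750 cells/well, RPMI + 5% FBS; 2 h settle, compound pin-transfer, 48 h at 37 degrees C. CellTiter-Glo 10 min RT, luminescence. Normalized to DMSO and media-only wells.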
Potency is read from the fitted curve at half-maximal effect; tags tell the direction and shape of the fitted curve.

SMILES	Potency	activity, negative = less viability
CCCCCCn1c(=O)n2n(c1=O)[C@@H]1CN(S(=O)(=O)c3ccc(C)cc3)C[C@]1(O)[C@@H](OC(=O)NCC1CCCCC1)C2	inconclusive [cytotoxic, single point]	
Cc1ccc2nc3c(cc(C(N)=S)c(=N)n3CCCOC(C)C)c(=O)n2c1	inconclusive [cytotoxic, single point]	
CCCCN(CC)CCCNC(=O)c1cc2c(-c3ccc(OC)c(OC)c3)nn(C)c2s1	inconclusive [cytotoxic, single point]	
O=C1NC[C@H](CCCCN2C[C@H](Cc3ccccc3)N(Cc3ccccc3)C(=O)C2=O)N(CCc2ccccc2)C1=O	inactive	
Cc1ccc(NC(=O)C2(c3ccc([N+](=O)[O-])cc3)CCCC2)cc1	inactive	
COc1ccc2cc3cc(C(=O)NCC4COc5ccccc5O4)oc3nc2c1 (centres undefined)	inconclusive [cytotoxic, single point]	
COc1ccc(OC)c(Nc2ncnc3ccc(Br)cc23)c1	inactive	
Cc1cc(NC(=O)c2ccccc2-c2ccccc2)ccc1Br	inconclusive [cytotoxic, single point]	
CC(C)(C)NC(=O)C(c1ccncc1)N(Cc1ccco1)C(=O)c1ccc(-c2ccccc2)[nH]1 (centres undefined)	active: 18.4 µM	
CC(C)c1ccc(NC(=O)C2Cc3c(-c4cccc(F)c4)ccnc3O2)cc1 (centres undefined)	inconclusive [cytotoxic, single point]	
CCNc1nc(N)nc(Oc2ccc(OCCOc3ccccc3)nn2)n1	inactive	
C/C(=N\Nc1cc(Cl)nc(C)n1)c1ccc(C)cc1	inconclusive [cytotoxic, single point]	
NC(=O)c1nc(C(=O)N2CCN(c3ccccc3)CC2)c2ccccc2n1	inactive	
CN(C)CCCn1c(NCc2ccc3c(c2)OCO3)nc2ccccc21	inconclusive [cytotoxic, partial curve]	
O=C(CCCOc1ccc(Cl)cc1Cl)N/N=C/c1ccc(Cl)cc1	inconclusive [cytotoxic, single point]	
O=[N+]([O-])c1ccc(NCCNS(=O)(=O)c2ccccc2)c(C(F)(F)F)c1	inconclusive [cytotoxic, partial curve]	
Cc1cc(C(=O)N/N=C/c2cc(N=Nc3ccccc3)ccc2O)n[nH]1	inconclusive [cytotoxic, partial curve]	
CCc1ccc2[nH]c(=O)c(CN(CCCN3CCOCC3)C(=O)Nc3ccc(F)cc3)cc2c1	inconclusive [cytotoxic, single point]	
Cc1ccc2nc(NC(=O)c3ccccn3)sc2c1	active: 14.6 µM	
O=C(C1CCN(S(=O)(=O)c2cccc3cccnc23)CC1)N1CCCC1	inactive	
Cc1cccn2cc(-c3ccc(S(=O)(=O)N4CCCCC4)cc3)nc12	inactive	
CCOC(=O)c1c(NC(=O)CSc2nnnn2-c2ccccc2)sc2c1CC(C)(C)NC2(C)C	inconclusive [cytotoxic, single point]	
S=C(NN=C1CCCCCC1)Nc1ccc(Cl)cc1	inconclusive [cytotoxic, single point]	

SMILES	Potency	activity, negative = less viability
COc1cc2ccccc2cc1C(=O)N(CCN(C)C)c1nc2ccc(Br)cc2s1	inconclusive [cytotoxic, single point]	
COc1cc(-c2nnc(CSc3nnc(Nc4ccc(C(C)C)cc4)s3)o2)cc(OC)c1OC	inconclusive [cytotoxic, partial curve]	
O=C(CN1C(=O)NC2(CCCC2)C1=O)OCCOc1ccc(Cl)cc1Cl	inactive	
N=C1S/C(=C\c2cccc3ccccc23)C(=O)N1c1ccc(F)cc1	inconclusive [cytotoxic, single point]	
COc1ccc(N/C=C/C(=O)c2ccc(OC)c(OC)c2)cc1	inconclusive [cytotoxic, partial curve]	
CC(C)Sc1nc2c(cnn2-c2ccccc2)c(=O)[nH]1	inactive	
CCCCN(C)S(=O)(=O)c1cc2c(cc1Br)CCN2C(=O)C1CC1	inactive	
CCN1CCN(c2ccc(S(=O)(=O)N3CCOCC3)cc2NC(=O)C2CCC(C(C)(C)C)CC2)CC1 (centres undefined)	inconclusive [cytotoxic, single point]	
CCC(=O)NC1=C(Cl)C(=O)C(NC(=O)CC)=C(Cl)C1=O	inconclusive [cytotoxic, single point]	
CCN(c1ccccc1)S(=O)(=O)c1ccc(Cl)c(NC(=O)CSc2n[nH]c(N)n2)c1	inactive	
O=C(NCCN1CCC(n2c(=O)[nH]c3ccccc32)CC1)c1cccc2c1-c1ccccc1C2=O	inactive	
Oc1ccccc1C=NCCN1CCN(CCN=Cc2ccccc2O)C1c1ccccc1O (centres undefined)	inactive	
C=CCC(=O)NC(C)c1cnn(-c2ccccc2C)c1C (centres undefined)	inconclusive [rising, single point]	
COc1cccc(-c2ocnc2C(=O)Nc2ccc(N3CCOCC3)cc2N2CCOCC2)c1	inconclusive [rising, partial curve]	
COc1ccccc1-c1sc2ccccc2c1-c1ccc(O)cc1	inactive	
CC1CCN(CC(O)COC2CCC(C(C)(C)C)CC2)CC1 (centres undefined)	inconclusive [cytotoxic, partial curve]	
O=C(O)c1cc(-c2cccc3ccccc23)nc2ccccc12	inactive	
NC(=O)NC(CC(=O)NCCc1ccc(S(N)(=O)=O)cc1)c1ccccc1Cl (centres undefined)	inconclusive [rising, partial curve]	
CCCn1c(Nc2nc3ccccc3n2C)nc2ccccc21	active: 13 µM	
Cc1cc2nc(-c3ccco3)c(Cc3cccc(Cl)c3)n2c(C)c1Br	active: 29.1 µM	
CC(C)(C)S(=O)(=O)Cc1nc(-c2ccc(Cl)c(Cl)c2)cs1	inconclusive [cytotoxic, partial curve]	
Cc1ccc(NC(=O)CSCC(=O)N2c3ccccc3CCc3ccccc32)cc1	inconclusive [cytotoxic, single point]	
COC1C(OC(=O)/C=C/C=C/C=C/C=C/C(=O)O)CCC2(CO2)C1C1(C)OC1CC=C(C)C (centres undefined) (tested in a mixture with another compound)	inactive	

SMILES	Potency	activity, negative = less viability
N/C(=N\OC(=O)CCC1CCCC1)c1ccc(Cl)cc1	inconclusive [rising, partial curve]	
COC(=O)c1ccc(CN(c2ccc(C(=O)O)c(O)c2)S(=O)(=O)c2ccc(Cl)c([N+](=O)[O-])c2)cc1	inactive	
O[C@H]1CN(CC2CCCCC2)[C@@H](c2ccccc2)C[C@@H]1n1cc(C2CC2)nn1	inactive	
COc1ccc(S(=O)(=O)Nc2ncccn2)cc1	inactive	
O=C(NCc1ccccc1)c1ccc(CN2CCC(Cc3ccccc3)CC2)cc1	inconclusive [cytotoxic, single point]	
COc1cccc(NC(=O)CCNC(=O)N2CC(=O)Nc3ccccc32)c1	inconclusive [cytotoxic, partial curve]	
CC(C)Cn1c(N)c(C(=O)COC(=O)CC23CC4CC(CC(C4)C2)C3)c(=O)n(C)c1=O	inconclusive [cytotoxic, partial curve]	
Cc1ccc(S(=O)(=O)N2CCOC2CNC(=O)C(=O)NCc2ccncc2)cc1 (centres undefined)	inconclusive [rising, partial curve]	
CC(=O)Nc1cc(-c2ccc(N3CCN(C)CC3)cc2)cn2c(-c3ccc(F)cc3)cnc12	inconclusive [cytotoxic, single point]	
Cc1cccc(C)c1OCCNC(=O)C(=O)NCc1ccco1	active: 1.64 µM	
COc1cccc(CN(CC2CCCO2)S(=O)(=O)c2ccc(S(=O)(=O)N(C)C)cc2)c1 (centres undefined)		inactive: -18.1% [at 9.24 µM]
CC(C)C1N(S(=O)(=O)c2ccccc2)CCN1S(=O)(=O)c1ccccc1	inactive	
CC(/C=N/NC(=O)c1cc(-c2ccccc2)nc2ccccc12)=C\c1ccco1	inconclusive [cytotoxic, full curve]	
O=C(Nc1cccnc1)OCc1ccccc1	inconclusive [cytotoxic, single point]	
CC1(C(=O)N/N=C/c2c(F)c(F)c(F)c(F)c2F)CC1(Cl)Cl (centres undefined)	inconclusive [cytotoxic, partial curve, poor fit]	
OC[C@@H]1CN(Cc2ccc(-c3ccccc3)cc2)C[C@H](n2cnc3c(N4CCOCC4)ncnc32)O1	active: 18.4 µM	
Cc1cc2nn(-c3ccccc3)nc2cc1NC(=O)c1cccs1	inconclusive [cytotoxic, single point]	
O=C(CCCSCCCC(=O)NN=Cc1ccccc1)NN=Cc1ccccc1	inactive	
O=C(N/N=C/C(Br)=C/c1ccccc1)C(O)c1ccccc1 (centres undefined)	inconclusive [cytotoxic, single point]	
O=C(Nc1ccc(Cn2cccn2)cc1)c1ccc(COc2ccccc2Br)cc1	inconclusive [cytotoxic, single point]	
O=c1nc(N/N=C/c2c[nH]c3ccccc23)cn[nH]1	inactive	
C[C@@H]1CCCCO[C@@H](CN(C)Cc2ccc3c(c2)OCO3)[C@@H](C)CN([C@H](C)CO)C(=O)c2cc(NS(=O)(=O)c3ccccc3)ccc2O1	inconclusive [cytotoxic, single point]	
O=C(CSc1nnc(CNC(=O)C23CC4CC(CC(C4)C2)C3)n1-c1ccc(F)cc1)Nc1ccc(F)cc1	inactive	
